PubChem BioAssay AID1030 (National Center for Advancing Translational Sciences (NCATS), 2008)
Several values for one entry are separate records, joined by “and”; a condition that tells them apart may be missing. Equal entries are not always repeated. In all, about 220,000 compounds went through this assay and about 16,000 (7.3%) were called active. The shares of active, inactive and inconclusive entries below differ from those in the screen. Calls follow the shape of the dose curve; as a rule, active = well fitted inhibition curve with a large enough effect (not every such curve was filed as active); inconclusive = small, poorly fitted or top-dose-only effect, or another doubt; inactive = no such curve, though single readings can be large or run the other way. Potencies of inconclusive entries are left out as doubtful fits.

The molecules below were run against Aldehyde dehydrogenase 1A1 (Homo sapiens) (UniProt P00352) (assay: qHTS Assay for Inhibitors of Aldehyde Dehydrogenase 1 (ALDH1A1)). Conditions: Purified ALDH1A1, NADH fluorescence, propionaldehyde substrate; series mostly up to 75.3 µM; activity, negative = inhibition: at the top concentration.
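For activity, negative = inhibition in this document: plate controls were no enzyme wells and a reference inhibitor.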
Potency is read from the fitted curve at half-maximal effect; tags tell the direction and shape of the fitted curve.

Sequence of UniProt P00352 (P00352 whole entry, looked up): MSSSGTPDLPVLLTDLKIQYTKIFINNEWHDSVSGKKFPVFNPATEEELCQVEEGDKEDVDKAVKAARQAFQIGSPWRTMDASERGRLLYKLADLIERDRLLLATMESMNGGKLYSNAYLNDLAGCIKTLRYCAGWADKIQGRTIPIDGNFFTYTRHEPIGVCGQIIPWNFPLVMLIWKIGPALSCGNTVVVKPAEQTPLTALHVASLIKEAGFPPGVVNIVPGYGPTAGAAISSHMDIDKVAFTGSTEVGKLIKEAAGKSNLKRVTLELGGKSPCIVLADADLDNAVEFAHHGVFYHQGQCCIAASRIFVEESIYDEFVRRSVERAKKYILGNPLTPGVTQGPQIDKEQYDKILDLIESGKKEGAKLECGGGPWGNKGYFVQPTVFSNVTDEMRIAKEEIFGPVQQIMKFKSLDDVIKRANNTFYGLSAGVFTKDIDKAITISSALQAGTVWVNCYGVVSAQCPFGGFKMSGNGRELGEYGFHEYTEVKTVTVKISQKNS

SMILES	Potency	activity, negative = inhibition
CC(=O)Nc1ccc(S(=O)(=O)Nc2cc(C)ccn2)cc1	inconclusive [inhibitor, single point]	
O=c1c2oc3nc4c(cc3c2ncn1CCCc1ccccc1)CCCC4	active: 3.98 µM	
O=C(NCc1ccco1)C1(c2ccc(Br)cc2)CCCC1	active: 0.178 µM	
O=C(/C=C/c1ccco1)NC(=S)Nc1ccccc1N1CCOCC1	inconclusive [inhibitor, single point]	
O=C(c1cc([N+](=O)[O-])ccc1N1CCCCC1)N1CCCCC1	active: 20 µM	
S=c1[nH]nc(Cc2cccs2)n1-c1ccccc1Cl	inconclusive [inhibitor, partial curve]	
C/C(=N\Nc1ccc(Cl)cc1)c1c(O)cc(C)oc1=O	active: 7.94 µM	
COc1ccc(-c2cc3ccccc3n2CC(O)CNCCO)cc1 (stereo not drawn)	inconclusive [inhibitor, single point]	
Cc1cc2oc(=O)cc(C)c2cc1NC(=O)CCC(=O)O	inconclusive [inhibitor, partial curve]	
O=[N+]([O-])c1ccc(SCc2ccco2)cc1N1CCOCC1	inconclusive [inhibitor, partial curve]	
COc1ccc2nc3oc(C(=O)N4CCCCC4)cc3cc2c1	inconclusive [inhibitor, partial curve]	
O=C(Cc1ccc(F)cc1)OCC(=O)c1cc2ccccc2o1	inconclusive [inhibitor, single point]	
COc1ccccc1CN1CCNC(=O)C1CC(=O)NC1Cc2ccccc2C1 (stereo not drawn)	inconclusive [inhibitor, single point]	
O=C(O)c1ccccc1NN=C1CCCCC1	inconclusive [inhibitor, single point]	
COc1ccc(C(=O)C2CCN(S(=O)(=O)c3ccc4c(c3)OCCO4)CC2)cc1	inconclusive [inhibitor, partial curve]	
C#CCOCCOCCOCCNc1nc(N2CCN(C(=O)[C@H]([C@@H](C)O)n3cc(CCCCN)nn3)CC2)nc(N2CCN(C(=O)[C@H]([C@@H](C)CC)n3cc(CCCN=C(N)N)nn3)CC2)n1		inactive: 4.15%
O=C(NC(=S)N1CCN(c2c(Cl)cccc2[N+](=O)[O-])CC1)c1cccs1	inconclusive [inhibitor, single point]	
CCN1CCCC1CNC(=O)CSCc1nc(-c2ccccc2C)oc1C (stereo not drawn)		inactive: 11.4%
CCOC(=O)CCc1c(C)c(C#N)c2nc3ccccc3n2c1-n1ccnc1	inconclusive [inhibitor, single point]	
CC(C)(C)CC(C)(C)c1cc(O)c(O)c(CN2CCCCC2)c1	inconclusive [inhibitor, full curve, poor fit]	
CCOn1c(SC(C)C)nc2ccccc2c1=O	inconclusive [inhibitor, single point]	
CN(CCO)c1nc(N)c2c(N)nc3c(c2c1C#N)CC(=O)N3C1CCCC1	inconclusive [inhibitor, partial curve]	
CCCCCCCCCCCC1=C(O)C(=O)C=C(O)C1=O	active: 20 µM and active: 23.8 µM	
CC1(C)N(OCc2ccccc2)C(=O)C(=O)N(OCc2ccccc2)C1(C)C		inactive: 10.1%
C1CCC[C@H]2CCCN3CC[C@H](CCCCCC[C@@H]4CCCN5CC[C@H](CC1)OC45)OC23		inactive: 11%

SMILES	Potency	activity, negative = inhibition
O=C(COC(=O)Cn1cnc2ccccc2c1=O)Nc1cc(Cl)ccc1[N+](=O)[O-]	inconclusive [inhibitor, single point]	
CCCOC(=O)c1ccc(NC(=O)c2nc3nc(C)cc(C)n3n2)cc1	inconclusive [inhibitor, single point]	
O=c1cc(CSc2nnnn2-c2ccccc2)nc2scc(-c3ccccc3)n12	active: 3.16 µM	
CSc1cccc(NC(=S)NCCCO)c1		inactive: -3.42%
COc1ccc(-c2c3c(=O)n(C)c(=O)n(C)c3cn2N2CCOCC2)cc1	inconclusive [inhibitor, single point]	
O=C(Cn1ncc(Cl)c(Cl)c1=O)c1ccc(Cl)cc1	active: 8.91 µM	
NNc1nc2c(-c3ccc(Cl)cc3)nnn2c2ccccc12	inconclusive [inhibitor, single point]	
Cc1ccc(/C=C2\Oc3c(ccc(O)c3CN3CCN(CCO)CC3)C2=O)cc1	inconclusive [inhibitor, single point]	
CCOC(=O)/C(C#N)=C1/C=Nc2ccccc2N1		inactive: -9.52%
CCO[C@H]1OC(C(=O)N2CCN(Cc3ccccc3)CC2)=C[C@@H](c2cn(C(C)=O)c3ccccc23)[C@@H]1CCCO		inactive: -8.23%
CCOc1ccc(Br)cc1S(=O)(=O)Nc1ccc(C(=O)OC(C)C(=O)N(C)c2ccccc2)cc1 (stereo not drawn)		inactive: 3.26%
Cc1ccc(NC(=O)C2=C(O)c3sccc3N(C)S2(=O)=O)cc1		inactive: -3.81%
CC(=O)Nc1ccc(S(=O)(=O)NC2=C(N3CCN(c4ccc(F)cc4)CC3)C(=O)c3ccccc3C2=O)cc1	active: 7.08 µM	
COc1ccccc1NC(=O)CN1CCN(c2ccccn2)CC1	inconclusive [inhibitor, single point]	
CCOP(=O)(c1ccc(N(C)C)cc1)C(O)c1cc(OC)c(OC)c(OC)c1 (stereo not drawn)		inactive: -3.12%
CCOC(=O)c1nc(N)sc1C(=O)OCC	inconclusive [inhibitor, partial curve]	
COc1ccc(OC)c(CCNC(=O)CSc2ccsc2[N+](=O)[O-])c1	active: 12.6 µM	
CN(C)c1ccc(CNC(=O)[C@@]2(C)C=C[C@@H](Cc3ccccc3)N2C)cc1	active: 20 µM	
C/C(=N\NC(=O)C1(C)NC(C)(C)Cc2ccccc21)c1ccccc1 (stereo not drawn)	inconclusive [inhibitor, partial curve]	
CCNC(=S)N1CCN(S(=O)(=O)c2ccc(C)c(C)c2)CC1	inconclusive [inhibitor, single point]	
O=S(=O)(NCc1ccco1)c1ccc2c(c1)Cc1ccccc1-2	inconclusive [inhibitor, partial curve]	
O=C(/C=C/c1ccccc1)Nc1ccc(N2CCCCC2)cc1		inactive: 6.34%
OC(C#CCN1CCCCC1)c1ccccc1 (stereo not drawn)		inactive: 17.5%
O=[N+]([O-])c1ccc(N2CCN(Cc3ccccc3)CC2)nc1	active: 20 µM	
CC(C)c1cc(C(F)(F)F)nc(NNc2nc(C(C)C)cc(C(F)(F)F)n2)n1		inactive: 15% [at 13.5 µM]

SMILES	Potency	activity, negative = inhibition
COc1ccccc1N1CCN(C(=O)c2cc3sccc3n2C)CC1		inactive: 4.4%
CCN(CC)S(=O)(=O)c1ccc(C(=O)Nc2c3c(nn2C(C)(C)C)CS(=O)(=O)C3)cc1	inconclusive [inhibitor, single point]	
Cn1c(SCc2ccccc2[N+](=O)[O-])nnc1-c1cccnc1		inactive: -2.65%
CN(CC(=O)Nc1ccccc1Sc1ccccc1)Cc1nc2ccccc2c(=O)[nH]1	inconclusive [inhibitor, single point]	
O=C1CC(c2ccco2)Cc2c1cnn2-c1nc2ccccc2s1 (stereo not drawn)	inconclusive [inhibitor, single point]	
Oc1ccc(/C=C/c2nc(-c3ccccc3O)n(-c3ccccc3)n2)cc1		inactive: -4.8%
O=[N+]([O-])c1ccc(NC(=S)NCc2ccncc2)cc1	active: 11.2 µM	
O=C(CSc1nc(O)cc(=O)n1C1CCCC1)Nc1cccc(Cl)c1Cl	inconclusive [inhibitor, single point]	
O=C(/C=C/NNC(=O)c1ccccc1)c1ccccc1		inactive: -8.63%
O=S(=O)(Nc1nc2ccccc2nc1N1CCc2ccccc2C1)c1ccc(Br)cc1	inconclusive [inhibitor, partial curve]	
CCOC(=O)c1[nH]c2ccc(F)cc2c1NC(=O)C(C)N1CCc2cc(OC)c(OC)cc2C1 (stereo not drawn)	inconclusive [inhibitor, single point]	
O=C(O)CC(c1ccc(Cl)cc1)N1C(=O)CCC1=O (stereo not drawn)		inactive: 3.15%
COC(=O)c1cccc(Nc2ncnc3ccc(C)cc23)c1	inconclusive [inhibitor, single point]	
CCn1cnc2cc(NCc3ccncc3)ccc21	inconclusive [inhibitor, single point]	
O=C(Cc1ccccc1)Nc1cccc(N2CCCC2)c1	active: 14.1 µM	
Cc1cccc(OC(C)c2ccnc3nc(/N=C/N(C)C)nn23)c1 (stereo not drawn)	inconclusive [inhibitor, single point]	
Cc1cnc(C(=O)N2CCCC(C(=O)c3ccc(C(F)(F)F)cc3)C2)cn1 (stereo not drawn)	inconclusive [inhibitor, single point]	
C/C(N)=C(/C#N)C(=O)COC(=O)c1cc(-c2cccc(Br)c2)nc2ccccc12	inconclusive [inhibitor, single point]	
CCOc1c2ccc(C(=O)NC3CCCc4ccccc43)cc2nn1CC (stereo not drawn)	inconclusive [inhibitor, partial curve]	
Cc1cc(=O)n(-c2ccc3ccccc3n2)[nH]1	inconclusive [inhibitor, partial curve, poor fit]	
Cc1ccc(S(=O)(=O)N(C)C)cc1NC(=O)CSc1ncc(C(F)(F)F)cc1Cl		inactive: -0.6%
CC(C)(C)c1ccc(OCC(=O)NNC(=O)C2CCCO2)cc1 (stereo not drawn)	inconclusive [inhibitor, single point]	
Cc1cc(C)c(O)c(-c2n[nH]c3c2C(c2cccc(O)c2)N(Cc2ccco2)C3=O)c1 (stereo not drawn)	inconclusive [inhibitor, partial curve]	
